# In PubChem BioAssay (NCATS):
# Several values for one entry are separate records, joined by “and”; a condition that tells them apart may be missing. Equal values may be shown once. The shares of active, inactive and inconclusive entries below differ from those in the screen. Potencies beside an inconclusive call are fits to weak or partial responses and may not hold up. Activity calls are given as the source filed them. Calls come from the whole dose curve; as a rule, active = well fitted inhibition curve with a large enough effect; inconclusive = small, poorly fitted or top-dose-only effect; inactive = flat fitted curve, though single readings scatter.
# System: WaGa
# Assay: qHTS assay to identify novel small-molecules to repurpose for Merkel cell carcinoma treatment (AID 1296009); note: nearly all actives have a fitted effect of over 60% in size
# Details: MCC and control cell lines, CellTiter-Glo viability, 72 h; series mostly up to 46 µM
# Excerpt: MCC is a rare and aggressive neuroendocrine skin cancer with limited treatment options. Approximately 80% of MCCs have the Merkel cell polyomavirus (MCPyV) DNA integrated into the host genome (virus-positive: VP-MCC) and viral oncogenes drive oncogenesis. The remaining MCCs are virus-negative (VN-MCC) and are caused by UV mutagenesis. To identify novel treatments for VP-MCC and/or VN-MCC we screened three VP-MCC cell lines (WAGA, MKL-1, MKL-2), three VN-MCC cell lines (MCC-13, MCC-26, UISO), and four immortalized, non-transformed control cell lines (HaCaT, HEK293T, CRL7250, NIH-3T3) against ~2,400 compounds in the NCGC Pharmaceutical Collection (NPC) and ~1,900 compounds in the Mechanism Interrogation PlatE (MiPE). Using cell viability as a readout (CellTiter-Glo assay) we found both overlapping and distinct drugs that can be repurposed for the treatment of VP-MCC and VN-MCC.
# A high-throughput screen was conducted in 1536-well white flat bottom plates (Corning) on a Kalypsys robotic system. Cell lines WAGA, MKL-1, MKL-2, MCC-13, MCC-26, UISO, HaCaT, HEK293T, CRL7250, and NIH-3T3 were screened against 2 small molecule annotated drug libraries NPC and MIPE in dose response (8 and 11 pt. respectively) measuring cell viability after 72 hours of incubation. […] A 1,536 pintool (Kalypsys) was used to transfer 23 nL of compound in DMSO to the 1,536-well assay plates. After 72 hr incubation at 37 degree celsius, 2.5 uL of CellTiter-Glo (Promega) was dispensed into each well using a BiorapTR. Plates were incubated at room temperature for 10 min, transferred to a ViewLux (PerkinElmer) and the luminescence was recorded using an exposure time of 2 seconds. Relative luminescence units (RLUs) were normalized to in-plate controls (no cells as a positive (cytotoxicity) control, DMSO as negative control) and the normalized data was processed using NCATS in-house software.
# Potency is the fitted concentration of half-maximal effect; tags give direction and shape of the fitted curve.
row,Structure (SMILES),Potency
1,CC=C(C)C(=O)N[C@@H](c1ccccc1)[C@@H](O)C(=O)O[C@H]1C[C@@]2(O)[C@@H](OC(=O)c3ccccc3)[C@@H]3[C@]4(OC(C)=O)CO[C@@H]4C[C@H](O)[C@@]3(C)C(=O)[C@H](OC(C)=O)C(=C1C)C2(C)C,"inconclusive: 0.0017 µM [inhibitor, full curve]"
2,CC(C)N(CCC(C(N)=O)(c1ccccc1)c1ccccn1)C(C)C (stereo not given),inactive
3,COc1cc(N)c(Cl)cc1C(=O)NC1CN2CCC1CC2 (stereo not given),inactive
4,COc1ccc(C(=O)c2c(C)n(CCN3CCOCC3)c3ccccc23)cc1,"inconclusive: 26.6 µM [inhibitor, single point]"
5,CC1(C)CC/C(=C/c2ccc(Cl)cc2)C1(O)Cn1cncn1 (stereo not given),"inconclusive: 67.9 µM [inhibitor, single point]"
6,CCO/N=C(\CC)C1=C(O)CC(c2c(C)cc(C)cc2C)CC1=O (stereo not given),"inconclusive: 68.6 µM [inhibitor, single point]"
7,CN(C)CCc1c[nH]c2ccc(O)cc12,"inconclusive: 67.2 µM [inhibitor, single point]"
8,COc1cc(CC(C)N)c(OC)cc1Br (stereo not given),active: 50.4 µM
9,COC[C@@H](NC(C)=O)C(=O)NCc1ccccc1,inactive
10,C=CCC1=C(C)C(OC(=O)C2C(C=C(C)C)C2(C)C)CC1=O (stereo not given),"inconclusive: 34.4 µM [inhibitor, single point]"
11,C=C[C@@H]1CN2CCC1C[C@H]2[C@H](O)c1ccnc2ccccc12 (stereo not given in full),inactive
12,CC(C)(C)CC(C)(C)c1ccc(O)cc1,"active: 34.4 µM and inconclusive: 23.7 µM [inhibitor, single point]"
13,CCCCCCCCCCCC[N+](C)(C)CCOc1ccccc1,active: 4.22 µM
14,CN(C)C(=O)Oc1cc(OC(=O)N(C)C)cc(C(O)CNC(C)(C)C)c1 (stereo not given),inactive
15,c1cc2c(c(N3CCNCC3)c1)OCCO2,inactive
16,COc1ccc2c3c1O[C@H]1[C@@H](O)C=C[C@H]4[C@@H](C2)N(C)CC[C@@]341,active: 5.34 µM
17,CN1C(=O)COc2c(C(=O)NC3CN4CCC3CC4)cc(Cl)cc21 (stereo not given),inactive
18,N[C@@H](Cc1ccc(Oc2cc(I)c(O)c(I)c2)c(I)c1)C(=O)O,inactive
19,CC(=O)N(C)c1cccc(-c2ccnc3c(C(=O)c4cccs4)cnn23)c1,inactive
20,O=C(Nc1ccncc1)C(=O)c1cn(Cc2ccc(Cl)cc2)c2ccccc12,"inconclusive: 0.0332 µM [inhibitor, full curve]"

row,Structure (SMILES),Potency
1,CC(C)N[C@@H]1CCn2c(=O)[nH]c3cccc(c32)[C@@H]1O,"inconclusive: 26.4 µM [inhibitor, single point]"
2,CCN1CCN(C(=O)Cc2ccc(Nc3ncc(F)c(Nc4ccc(C(=O)Nc5ccccc5Cl)cc4)n3)cc2)CC1,"inconclusive: 1.32 µM [inhibitor, full curve]"
3,C[C@@H]1C[C@@H]([C@H](O)CC2CC(=O)NC(=O)C2)C(=O)[C@@H](C)C1,"inconclusive: 0.473 µM [inhibitor, full curve, poor fit]"
4,CC(C)NCC(O)c1ccccc1Cl (stereo not given),inactive
5,CO/C=C(/C(=O)OC)c1ccccc1Oc1cc(Oc2ccccc2C#N)ncn1,"inconclusive: 15.4 µM [inhibitor, partial curve]"
6,CCOP(=O)(NC(C)C)Oc1ccc(SC)c(C)c1 (stereo not given),"inconclusive: 68.6 µM [inhibitor, partial curve, poor fit]"
7,Cc1c(N)nc([C@H](CC(N)=O)NC[C@@H](N)C(N)=O)nc1C(=O)N[C@H](C(=O)N[C@@H](C)[C@H](O)[C@@H](C)C(=O)N[C@@H](C(=O)NCCc1nc(-c2nc(C(=O)NCCC[S+](C)C)cs2)cs1)[C@@H](C)O)C(O[C@H]1O[C@H](CO)[C@H](O)[C@@H](O)[C@@H]1O[C@H]1O[C@H](CO)[C@@H](O)[C@H](OC(N)=O)[C@H]1O)c1cnc[nH]1 (stereo not given in full),active: 3.72 µM
8,C=CCN1CC[C@]23CCCC[C@H]2[C@H]1Cc1ccc(O)cc13,inactive
9,CC(NC(C)(C)C)C(=O)c1cccc(Cl)c1 (stereo not given),inactive
10,COc1ccc(N(C(=O)Oc2c(C)cccc2C)c2ccnc(Nc3ccc(N4CCN(C)CC4)cc3)n2)c(OC)c1,"inconclusive: 6.62 µM [inhibitor, partial curve]"
11,NP(N)(=O)NC(=O)c1ccc(F)cc1,inactive
12,C=CC[C@]1(O)CC[C@H]2[C@@H]3CCC4=CC(=O)CCC4=C3C=C[C@@]21C,"inconclusive: 26.6 µM [inhibitor, single point]"
13,Cc1nnc2n1-c1sc(CCc3ccc(CC(C)C)cc3)cc1C(c1ccccc1Cl)=NC2C (stereo not given),"inconclusive: 21.1 µM [inhibitor, single point]"
14,CCOC(=O)C1(c2ccccc2)CCN(CCC(C#N)(c2ccccc2)c2ccccc2)CC1,"inconclusive: 21.1 µM [inhibitor, single point]"
15,Nc1ccc(N=Nc2ccccc2)cc1,"inconclusive: 30.6 µM [inhibitor, single point]"
16,CS(=O)(=O)c1ccc(C(=O)C2C(=O)CCCC2=O)c([N+](=O)[O-])c1,inactive
17,O=[N+]([O-])c1ccc([As](=O)(O)O)cc1,inactive
18,CC[C@H]1C=CC=CC[C@@H](C)[C@H](O)[C@@](C)(O)C(=O)[C@@H](C)[C@H](O)[C@@H](C)C(=O)[C@@H](C)[C@H](O)[C@@H](C)C=CC(=O)O[C@@H]2[C@@H](C)[C@H](CC1)O[C@]1(CC[C@H](C)[C@H](C[C@@H](C)O)O1)[C@H]2C,active: 0.662 µM
19,COC(C)(C)CCCC(C)C/C=C/C(C)=C/C(=O)OC(C)C (stereo not given),inactive
20,CCC(=O)O[C@H]1CC[C@H]2[C@@H]3CCC4=CC(=O)CC[C@]4(C)[C@H]3CC[C@]12C,"inconclusive: 23.7 µM [inhibitor, single point]"
